Measurements: PubChem BioAssay AID1569 (National Center for Advancing Translational Sciences (NCATS), 2009)
Inconclusive means that the source gave no clear call. Such entries were picked first, then a sample of the others. A potency beside an inconclusive call is a rough fit, not a confirmed value. Activity calls are given as the source filed them. Calls follow the shape of the dose curve; as a rule, active = well fitted inhibition curve with a large enough effect; inconclusive = small, poorly fitted or top-dose-only effect, or effect the other way, or another doubt; inactive = no such curve, though single readings can be large or run the other way.
Potency is read from the fitted curve at half-maximal effect; tags tell the direction and shape of the fitted curve.

Assay: Confirmation Concentration-Response Assay for lipid storage modulators; also: nearly all actives have a fitted effect of over 80% in size;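 as to activity change, negative = inhibition: -100% = full block of lipid deposition by 20 µM Triacsin C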
Details: Drosophila S3 cells, lipid droplet BODIPY/CellTracker ratio, 18-24 h; activity change, negative = inhibition: at 46.1 µM (top of the series)
Summary of the method: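 Cells at 5,000/well received compound as a titration plus oleic acid (added as 400 uM solution) and were incubated 18–24 h at 24 °C. BODIPY 493/503 lipid signal and CellTracker Red cell count were read by 488-nm laser-scanning cytometry. Activity was normalised to 20 uM Triacsin C.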
For `COc1ccc(N(CC(=O)Nc2ccc3c(c2)OCCO3)S(=O)(=O)c2cccnc2)cc1`, the Potency was inconclusive: 0.888 µM [activator, full curve]. For `O=C(CC(C(=O)O)C1CCCO1)NCCc1ccc2c(c1)OCO2` (centres undefined), the Potency was inconclusive: 22.3 µM [activator, partial curve, poor fit]. In the case of `COc1ccc(CCNC(=O)CSc2nnc(-c3ccccc3)c3ccccc23)cc1OC`, the Potency is reported as active: 4.45 µM. For `CCOc1ccccc1-n1c(SCC(=O)NC2CCCC2)nnc1-c1ccoc1C`, the Potency was inconclusive: 8.88 µM [activator, full curve]. In the case of `COc1ccc2nc(NC(=O)CSc3nnnn3C3CCCCC3)sc2c1`, the Potency is reported as inconclusive: 9.96 µM [activator, partial curve]. For `CCN(CC)C(=O)c1sc2nc(-c3cccs3)cc(-c3cccs3)c2c1N`, the Potency was active: 7.91 µM. With `Cc1ccc(C)c(NC(=O)c2sc(Cl)nc2-c2ccccc2)c1` the Potency was inconclusive: 1.41 µM [activator, full curve]. For `COC(=O)c1ccccc1NC(=O)c1ccc(C#N)cc1`, the Potency was active: 1.12 µM [activator]. With `COc1ccccc1NC(=O)c1ccc2ccccc2c1` the Potency was inconclusive: 3.98 µM [rising, partial curve, poor fit]. For `Cc1cc(Nc2ccccc2)nc(NCc2ccccc2)n1`, the Potency was active: 11.2 µM. With `COc1ccc(CC(=O)Nc2ccc(-c3cn4cccc(C)c4n3)cc2)cc1OC` the Potency was inconclusive: 0.315 µM [activator, full curve]. With `COc1cc(SC)ccc1C(=O)Nc1ccc2c(c1)OCCO2` the Potency was inconclusive: 4.45 µM [activator, full curve]. For `Cc1nc2ccccc2c2oc(C(=O)NCc3ccccn3)cc12`, the Potency was inconclusive: 0.112 µM [activator, full curve]. For `CCn1c(SCc2ccc(C(=O)Nc3cc(C)cc(C)c3)cc2)nnc1-c1ccncc1`, the Potency was inconclusive: 0.223 µM [activator, full curve]. For `c1ccc(CNc2ncnc3ccccc23)cc1`, the Potency was active: 12.5 µM. In the case of `Cn1c(CCN2CCN(c3ccccn3)CC2)nc2cc(NC(=O)COc3ccc(Cl)cc3)ccc21`, the Potency is reported as inconclusive: 3.97 µM [activator, full curve, poor fit]. With `COC(=O)Cn1c(C)nc2c(sc3nc(C)cc(C)c32)c1=O` the Potency was inconclusive: 0.791 µM [activator, full curve]. In the case of `Cc1ccc(NC(=O)c2ccco2)cc1NC(=O)CSc1nnc(-c2cccs2)n1C`, the Potency is reported as inconclusive: 1.12 µM [activator, full curve]. For `CC(C)(C)OC(=O)C1C(=O)CC(C)(O)C(C(=O)OC(C)(C)C)C1c1cccnc1` (centres undefined), the Potency was inconclusive: 0.281 µM [activator, full curve]. For `Cc1ccc(C(NC(=O)C2CCCCC2)c2c(O)ccc3ccccc23)cc1` (centres undefined), the Potency was active: 17.7 µM. With `Cc1cccc(NC(=O)N2CCC(c3nc4ccccc4o3)CC2)c1` the Potency was inconclusive: 6.28 µM [activator, partial curve]. In the case of `Cc1cnc(C(=O)NC2CC(C)(C)Cc3c2cnn3-c2cccc(F)c2)cn1` (centres undefined), the Potency is reported as inconclusive: 4.99 µM [activator, full curve, poor fit]. With `CCOCCCNC(=O)NC(=O)CN1CCN(S(=O)(=O)c2ccc3c(c2)OCCO3)CC1` the Potency was inconclusive: 22.3 µM [activator, partial curve, poor fit]. In the case of `COc1cc2c(cc1NC(=S)NC(=O)c1c(OC)cccc1OC)oc1ccccc12`, the Potency is reported as active: 2.17 µM. In the case of `Cc1ccc(-c2nc3ccccc3n3nnnc23)cc1`, the Potency is reported as inconclusive: 0.445 µM [activator, full curve]. For `CN(CC1CCCO1)S(=O)(=O)c1ccc(C(=O)Nc2ccc(F)cc2)cc1` (centres undefined), the “activity change, negative = inhibition” value was inactive: 20.8%. With `CCN(c1ccccc1)S(=O)(=O)c1ccc(N)c(OC)c1` the Potency was inconclusive: 4.45 µM [activator, partial curve]. For `O=S(=O)(c1cccs1)N1CCN(Cc2nc3ccccc3s2)CC1`, the Potency was inconclusive: 2.23 µM [activator, partial curve]. With `Nc1nc(NCc2ccccc2)nc(-c2ccccc2)n1` the Potency was inconclusive: 4.45 µM [activator, partial curve]. For `CCc1ccc(CN(C)C(=O)c2ccc3c(=O)n4c(nc3c2)CCC4)cc1`, the “activity change, negative = inhibition” value was inactive: 5.52%. In the case of `Cc1cccc(OCc2nnc(SCC(=O)N3c4ccccc4CC3C)n2C)c1C` (centres undefined), the Potency is reported as active: 6.28 µM. With `CCN(CC(=O)Nc1ccc(NC(C)=O)cc1)C(=O)CCCOc1cccc(C)c1` the Potency was inconclusive: 35.3 µM [falling, single point]. With `O=C(Nc1ccc2c(c1)nc1n2CCN(Cc2ccccc2)C1)c1cccs1` the Potency was inconclusive: 0.396 µM [activator, full curve]. For `COc1ccc2c(c1OC)C(=O)N1N=C(c3ccccc3)CC21` (centres undefined), the Potency was inconclusive: 5.6 µM [activator, full curve, poor fit]. In the case of `CC(C)Oc1ccc(S(=O)(=O)N2CCCCC2)cc1NC(=O)C1CCC1`, the Potency is reported as inconclusive: 1.25 µM [activator, full curve]. For `CC(C)c1nc(SCC(=O)N2c3ccccc3CC2C)c2ccccc2n1` (centres undefined), the Potency was inconclusive: 4.99 µM [activator, partial curve]. For `COC(=O)c1ccccc1NC(=O)c1ccc(F)cc1F`, the Potency was active: 1.41 µM [activator]. For `Cc1nn(Cc2ccccc2)c(C)c1NC(=O)CSc1nc(C2CC2)nc2c1cnn2-c1ccccc1`, the Potency was inconclusive: 0.281 µM [activator, full curve, poor fit]. For `CCOc1ccc(CCNC(=O)c2cccc(S(=O)(=O)N3CCOCC3)c2)cc1OCC`, the Potency was inconclusive: 4.99 µM [activator, partial curve, poor fit].
